The values below come from PMC4336329 (PLoS ONE, 2015).

SMILES strings stand for the structures. Hit rate of the full screen: of about 310,000 compounds, about 14,000 (4.5%) showed an effect of 50% or more. Effects have a minus sign here. The list shows a part of the results.
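Further: peak tail current of the secondary pulse compared with the same well before compound.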

The target of this assay is human ether-à-go-go-related gene (hERG) potassium channel (human, UniProt Q12809). The assay can be described thus: primary screen, population patch clamp on CHO cells stably expressing hERG.
human ether-à-go-go-related gene (hERG) potassium channel, sequence (Q12809 whole entry, looked up): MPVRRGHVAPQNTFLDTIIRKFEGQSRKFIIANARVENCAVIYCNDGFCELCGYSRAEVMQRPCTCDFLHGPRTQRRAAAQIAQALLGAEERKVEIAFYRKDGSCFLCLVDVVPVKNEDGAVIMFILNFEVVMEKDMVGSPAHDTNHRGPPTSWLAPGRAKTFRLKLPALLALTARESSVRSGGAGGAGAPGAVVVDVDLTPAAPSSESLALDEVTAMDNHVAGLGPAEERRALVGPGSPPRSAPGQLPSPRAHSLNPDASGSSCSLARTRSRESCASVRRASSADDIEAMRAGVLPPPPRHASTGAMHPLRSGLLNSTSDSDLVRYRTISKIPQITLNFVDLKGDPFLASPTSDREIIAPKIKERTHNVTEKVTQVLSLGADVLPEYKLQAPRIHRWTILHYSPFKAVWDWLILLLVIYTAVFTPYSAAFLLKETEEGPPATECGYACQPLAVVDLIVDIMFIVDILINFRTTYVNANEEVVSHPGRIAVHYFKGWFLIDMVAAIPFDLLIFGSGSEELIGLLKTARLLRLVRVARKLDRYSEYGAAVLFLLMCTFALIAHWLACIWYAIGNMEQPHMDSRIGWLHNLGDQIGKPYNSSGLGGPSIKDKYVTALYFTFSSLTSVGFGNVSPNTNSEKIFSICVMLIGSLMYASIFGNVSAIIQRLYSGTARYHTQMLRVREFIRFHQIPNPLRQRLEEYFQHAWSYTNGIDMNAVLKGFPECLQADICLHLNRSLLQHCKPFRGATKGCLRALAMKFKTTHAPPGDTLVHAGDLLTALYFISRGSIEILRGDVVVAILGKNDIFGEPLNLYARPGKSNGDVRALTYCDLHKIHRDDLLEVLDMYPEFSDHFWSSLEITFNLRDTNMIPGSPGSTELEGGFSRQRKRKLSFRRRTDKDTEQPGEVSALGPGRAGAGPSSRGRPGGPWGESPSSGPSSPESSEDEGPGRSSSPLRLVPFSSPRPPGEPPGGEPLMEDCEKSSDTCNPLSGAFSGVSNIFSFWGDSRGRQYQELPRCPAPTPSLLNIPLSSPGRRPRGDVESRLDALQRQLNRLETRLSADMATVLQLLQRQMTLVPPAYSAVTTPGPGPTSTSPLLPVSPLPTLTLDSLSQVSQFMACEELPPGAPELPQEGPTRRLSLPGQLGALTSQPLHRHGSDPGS
As to `O=C(O)c1cccc(N/N=C(\N=Nc2ccccc2)c2ccccc2)c1`, the “hERG current change (%, negative = inhibition) at 10uM” value is 14.2%.
Regarding `COc1ccc(-c2csc(NC(=O)/C(N=Nc3ccccc3)=C(\C)O)n2)cc1`, the “hERG current change (%, negative = inhibition) at 10uM” value is recorded as 37.4%.
As for `Cc1cccc(N2CCN(C(=O)CCS(=O)(=O)c3ccc4c(c3)NC(=O)C(C)S4)CC2)c1C` (centres unmarked), the “hERG current change (%, negative = inhibition) at 10uM” value was 29%.
In the case of `O=C(CCCN1C(=O)CSc2ncccc21)N1CCN(c2cccc(C(F)(F)F)c2)CC1` it was -56.5%.
For `Cc1ccc(-n2cc(CN(C)Cc3nccn3C)c(-c3ccc(F)cc3)n2)cc1` the value was -37.6%; for `Cc1ccc(CN2CCN(Cc3ccc(C)s3)CC2CCO)cc1` (centres unmarked), -73.3%.
For `Cc1ccc(NC(=S)Nc2c(C)n(C)n(-c3ccccc3)c2=O)cc1Cl` the value was -22.7%; for `CCOC(=O)c1cc(-c2ccccc2C)nn1Cc1cc(C)no1`, -4.63%; for `CC1=CC2(O)OCCN(CCO)C2=CC1=O` (centres unmarked), 1.48%.
With `Cc1ccc2sc(N(CCN(C)C)C(=O)c3ccc4ccccc4c3)nc2c1C.Cl`, the “hERG current change (%, negative = inhibition) at 10uM” value is 18.7%.
In the case of `O=C(Nc1ccc(N2CCN(C(=O)c3ccco3)CC2)cc1)c1ccco1` it was 20.7%; in that of `C/C(=N\NC(=O)c1ccc2nc[nH]c2c1)c1ccc([N+](=O)[O-])cc1`, -19.1%.
On to `Cc1ccc(C)c(Cn2nc(-c3cc(C)ccc3C)ccc2=O)c1`, for which the “hERG current change (%, negative = inhibition) at 10uM” value is on record as -3.14%.
For `CC(C)NC(=O)c1ccccc1NC(=O)/C=C/c1ccc([N+](=O)[O-])cc1` the value was -18.8%; for `CCC(C)(C)n1nnnc1C(c1cc(OC)c(OC)c(OC)c1)N1CCN(c2ccccc2)CC1` (centres unmarked), -8.58%; for `Br.Cc1ccccc1OCC(=O)NN1Cc2ccccc2C1=N`, -0.416%.
`Cc1csc(NC(=O)CSc2nnc(-c3ccoc3C)n2CCc2ccccc2)n1`: the “hERG current change (%, negative = inhibition) at 10uM” value is given as -59.7%.
In the case of `CC1(c2nnc(-c3cccc(Cl)c3)o2)CC(c2cccnc2)=NO1` (centres unmarked) it was -9.06%.
For `CCOC(=O)C1=C(O)CSC1=Nc1ccc(C)cc1` the value was -4.86%.
In the case of `CCCCCn1c(-c2ccco2)nc2nc3ccccc3nc21` it was -67.5%; in that of `COc1ccc(NC(=O)c2cc3c(Cl)nc4ccccc4c3s2)cc1OC`, 19.5%.
For `CC(C)(C)OC(=O)NCCCCCNC(=O)c1[nH]cnc1C(=O)Nc1cccc(Cl)c1`, the “hERG current change (%, negative = inhibition) at 10uM” value amounted to 6.09%.
Turning to `S=C(NCCSCc1ccccc1Cl)Nc1ccccc1`, the “hERG current change (%, negative = inhibition) at 10uM” value is -7.59%.
For `CC(=O)N1CCN(CC(=O)Nc2ccccc2C(=O)NCc2ccc(C)cc2)CC1` the value was -25.4%; for `Nc1cccc(C#Cc2ccc3c(=O)c4ccccc4oc3c2)c1`, 11.6%.
`Cn1sc(=O)c2cc(S(=O)(=O)NC3CC3)ccc21`: the “hERG current change (%, negative = inhibition) at 10uM” value is -16.2%.
For `COc1ccc(-n2ncc3c(N4CCN(Cc5ccccc5)CC4)ncnc32)cc1` the value was -4.91%.
In the case of `c1cnc(NCCNc2ncccn2)nc1` it was 9.05%; in that of `COc1ccc(C)cc1S(=O)(=O)N1CCN(C(=O)c2ncoc2-c2cccc(F)c2)CC1`, 13.8%; in that of `NNC(=O)CNc1cccc(Br)c1`, 11.7%.
In the case of `N#Cc1c(NC(=O)C2CC=CCC2C(=O)O)sc2c1CCCCCC2` (centres unmarked) it was -25.1%; in that of `O=C(Nc1nnc(C2CC2)s1)c1ccco1`, 0.189%.
Turning to `CCN(CC)c1ccc(C(=O)N/N=C/c2ccccc2OC(F)F)cc1`, the “hERG current change (%, negative = inhibition) at 10uM” value is 14.4%.
Turning to `O=C(C1CCCC1)N1CCC(CC2CC(c3cccc(Br)c3)=NO2)(C(=O)NCC2CCCCC2)CC1` (centres unmarked), the “hERG current change (%, negative = inhibition) at 10uM” value is -49.9%.
In the case of `COc1ccc(Br)cc1CN1CCCCCC1` it was -16.3%.
In the case of `CCn1c(=O)c(C(=O)NNS(=O)(=O)c2ccc(Cl)cc2)c(O)c2ccccc21` it was -13.5%.
Turning to `Cc1scc(C(=O)N/N=C/c2ccc(Cl)s2)c1C`, the “hERG current change (%, negative = inhibition) at 10uM” value is -3.55%.
In the case of `C=CCOc1cccc(C2/C(=C(/O)c3ccc(Cl)cc3)C(=O)C(=O)N2CCN2CCOCC2)c1` (centres unmarked) it was -0.107%; in that of `Cc1ccc(NC(=O)C2CCN(S(C)(=O)=O)CC2)cc1C`, 3.29%.
Consider `CCC1(CC)NC(=O)N(Cc2nc3ccccc3s2)C1=O`, for which the “hERG current change (%, negative = inhibition) at 10uM” value is 7.3%.
In the case of `Cc1ccc2c(c1)nnn2C1CCN(CC(=O)Nc2ccccc2N2CCOCC2)CC1` it was -69.8%.
For the molecule `O=C(CN1CCN(S(=O)(=O)c2ccc(Br)cc2)CC1)N/N=C/c1ccc(Cl)c([N+](=O)[O-])c1`, the “hERG current change (%, negative = inhibition) at 10uM” value was -17.9%.
In the case of `COC(=O)c1ccccc1NC(=O)CCC(=O)N1CCSc2ccccc21` it was -12.1%.
`O=C(Nc1ccccc1)N1CCc2c([nH]c3ccccc23)C1C(F)(F)F` (centres unmarked): the “hERG current change (%, negative = inhibition) at 10uM” value is recorded as 4.42%.
